Assay results: the supplement of paper PMC10338343
± gives the standard deviation. The full ranking holds about 3,700 sequences; the median of “pre-steady-state target cleavage rate” is about 0.02, and the highest 2% start at about 0.23. The entries are a selection whose mix differs from that of the whole data set.

The sequences below were run on MILI (PIWIL2) piRISC loaded with Kctd7 piRNA (26 nt) (assay: pre-steady-state target cleavage rate (min^-1); MIWI and MILI are mouse PIWI proteins and EfPiwi is from a freshwater sponge; tags in brackets are library labels; higher = faster piRNA-guided slicing of the target). Conditions: guide: Kctd7 piRNA 5'p-UGUUAAUCUCUCAGAGAAGGUGACAG; auxiliary factor: 500 nM mouse GTSF1.
Procedure, shortened: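 Cleave-'n-Seq: 1 nM active affinity-purified piRISC with one synthetic guide and 0.1 nM transcribed, DNA-blocked target RNA library were mixed, with or without 500 nM GTSF1 partner protein, in HEPES–potassium acetate buffer at 33 °C for 0–8 or 0–960 min. Uncleaved targets were sequenced and normalised to depth and to weakly complementary targets, three trials were pooled, and k3 was capped at 0.0001 min^-1. The pre-steady-state cleavage rate was fitted […].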

Row | Sequence | pre-steady-state target cleavage rate
1 | UAGUGAGACACCUUCUCUGAGAGUUUAACA | 0.154 ± 0.038
2 | UAGUCUGUCAGCUUCUCUGAGAGUUUAACA | 0.0628 ± 0.0096
3 | UAGUCUGAGUCCUUCUCUGAGAGAUUAUGA | 0.00664 ± 0.0032
4 | UAGUCUGUCACCUACUCUGAGAGAUUAACA | 0.17 ± 0.0087
5 | UAGUGACACACCUUCUCUGAGGGAUUAACA | 0.101 ± 0.015
6 | UAGUGACAGUCCUUCUUUGAGAGAUUAACA | 0.0638 ± 0.0078
7 | UAGUGACUCACCUUCACUGAGAGAUUUUGA | 0.048 ± 0.016
8 | UAGUGAGUCACCAUCUCUGUGAGAUUAACA | 0.0357 ± 0.0047
9 | UAGUGACUGACCUUCUCUGACAGAUUAACA | 0.059 ± 0.019
10 | UAGUGAGUCACCUUCUCUGAGACAAUAACA | 0.00805 ± 0.0051
11 | UAGUCUGUCACCUUCUCUGAGAGAUUUACA | 0.193 ± 0.026
12 | UAGUGACAGUGGAUCUCUGAGAUAUUAACA | < 0.0001
13 | UAGUGAGUCACGUUCUCUGAGAGAUUUACA | 0.0932 ± 0.023
14 | UAGUGACAGUCCUUCUCUGAGAGAUUAAUCA | 0.0628 ± 0.011
15 | UAGUGACACACCUUGACUGAGAGAUUAACA | 0.0582 ± 0.022
16 | UAGUGAGAGUCCUUCUCUGAGAGAUUAACA | 0.0775 ± 0.015
17 | UAGUGAGUCACCUUCACUGAGACAUUAACA | 0.0967 ± 0.024
18 | UAGUCUGUCACCCUCUCUGAGAGAUUAACA | 0.238 ± 0.018
19 | UAGUCUGUCACCUUGUCUGAGAGAUUAUCA | 0.077 ± 0.018
20 | UAGUCUGUGUCCUUCUCUGAGAGAUUAAGA | 0.0324 ± 0.0063
21 | UAGUGAGUCACCUUCUCUGGAGAGAUUAACA | 0.00454 ± 0.0043
22 | UAGUGACAGUCCUUCUGUGUGAGAUUAACA | 0.0171 ± 0.0028
23 | UAGUGUGUCACCAUCUCUGAGACAUUAACA | 0.063 ± 0.013
24 | UAGUGACACACCUACUCUGUGAGAUUAACA | 0.0409 ± 0.0069

Row | Sequence | pre-steady-state target cleavage rate
25 | UAGUCUGUCACCUUCUCUGAGAGAUUAUACA | 0.224 ± 0.043
26 | UAGUGUGACACCUUCUCUGAGAGAUUUACA | 0.19 ± 0.046
27 | UAGUCUGUCACCUUCUCAGAGACAUUAACA | 0.118 ± 0.019
28 | UAGUGACAGUGGAUGACUGAGAGAUUAACA | < 0.0001
29 | UAGUGACAGUGCUUCUCUGAGAGAUUAACA [g2:g19:cont:t1A] | 0.0405 ± 0.0054
30 | UAGUGACACUCCUUCUCUGAGAGUUUAACA | 0.0236 ± 0.0075
31 | UAGUGACACACCUUGUCAGAGAGAUUAACA | 0.0569 ± 0.0091
32 | UAGUGACAGACCAUCUCUGAGAGUUUAACA | 0.0108 ± 0.0049
33 | UAGUGACAGCCCUUCUCUGAGAGAUUAACA | 0.103 ± 0.013
34 | UAGUGACACACCUUACUCUGAGAGAUUAACA | 0.0582 ± 0.0058
35 | UAGUGUGUCACCUUCACUCAGAGAUUAACA | 0.0272 ± 0.01
36 | UAGUGACACACGUUCUCAGAGAGAUUAACA | 0.0665 ± 0.011
37 | UAGUGACUCACGAUCUCUGAGAGAUUAAGA | 0.0103 ± 0.005
38 | UAGUCUGUCACCAUCUCUGAGAGAUUAUGA | 0.00931 ± 0.0048
39 | UAGUGACAGACCUUCUCUGAGAGCUUAACA | 0.0417 ± 0.0084
40 | UAGUGACAGUGGAUGUCUGAGACAUUAACA | < 0.0001
41 | UAGUGUGUCACCUUCUCUGUCAGAUUAACA | 0.00798 ± 0.004
42 | UAGUCUGUCACCUCCUCUGAGAGAUUAACA | 0.215 ± 0.011
43 | UAGUGAGUCACCUUCUCUGAGAGAUUAUGA | 0.0953 ± 0.026
44 | UAGUGACUCACCUUCUCAGAGAGUUUAACA | 0.04 ± 0.0095
45 | UAGUGACAGUGCUUCUUCUGAGAGAUUAACA | 0.00475 ± 0.0027
46 | UAGUGACAGACCUUCUCUGAGAGAUUAAUCA | 0.0797 ± 0.012
47 | UAGUCUGUCACCUUCUCUGAGAGGUUAACA | 0.198 ± 0.025
48 | UAGUGAGUCACCUUGUCUGAGAGAUUAUGA | 0.00612 ± 0.0051

Row | Sequence | pre-steady-state target cleavage rate
49 | UAGUGUGUCAGGAUCUCUGAGAGAUUAUGA | 0.00413 ± 0.0029
50 | UAGUGAGUCACCUUCUGAGAGAGAUAUUGA | 0.00466 ± 0.0046
51 | UAGUCUGUCUCCUUCUCUGAGAGAUUAACA | 0.176 ± 0.011
52 | UAGUGAGUGACCUUCUCUGAGAGAUUAAGA | 0.102 ± 0.028
53 | UAGUGUGUCACCUUCUGAGAGAGAUUAACA | 0.101 ± 0.013
54 | UAGUGACUCACCUUGUGUGAGAGAUUAACA | 0.0834 ± 0.0088
55 | UAGUGACAGUGCUUCUGUGUGAGAUUAACA | 0.0167 ± 0.0033
56 | UAGUGACACACCUUCUCUGAGAGGUUAACA | 0.0913 ± 0.011
57 | UAGUGAGUCACCUUCUCUGAGUGAUUAACA | 0.0142 ± 0.0063
58 | UAGUGAGUCACCUUCUGUGAGACAUUAACA | 0.0469 ± 0.011
59 | UAGUGACAGUACUUCUCUGAGAGAUUAACA | 0.0199 ± 0.004
60 | UAGUGUGUCACCUACACUGAGAGAUUAACA | 0.15 ± 0.011
61 | UAGUGACAGACCUUGUCUCAGAGAUUAACA | 0.0128 ± 0.0035
62 | UAGUGACAGACCUUCUCUGAGAGACUUAACA | 0.0355 ± 0.013
63 | UAGUGACUCACCUUCUCUGAGAGAUUACA | 0.117 ± 0.028
64 | UAGUGACAGACCUUUCUGAGAGAUUAACA | 0.0108 ± 0.0065
65 | UAGUGACAGUGGAUUCUCUGAGAGAUUAACA | 0.00448 ± 0.0014
66 | UAGUCUGUCAGCUUCACUGAGAGAUUAACA | 0.0681 ± 0.0072
67 | UAGUGUGUCACCUUCUCUGCGAGAUUAACA | 0.11 ± 0.016
68 | UAGUGAGUCACCUUCUCUGAGAGUUUAUCA | 0.132 ± 0.049
69 | UAGUGACACUCCUUGUCUGAGAGAUUAACA | 0.0837 ± 0.015
70 | UAGUGUGUCACAUUCUCUGAGAGAUUAACA | 0.184 ± 0.014
71 | UAGUGACACACGUUCUGUGAGAGAUUAACA | 0.0626 ± 0.011
72 | UAGUGAGUCACCUUCUCCGAGAGAUUAACA | 0.394 ± 0.084
